Assay [1] has as its target Miro1 (human (endogenous in HEK293T)), Q8IXI2. The experiment in a line: co-IP; lysate of mitochondria isolated from HEK293T cells, endogenous proteins; mouse anti-Miro1 antibody at 4 °C overnight, Protein A/G magnetic beads; Western blot; cytosol fraction as control. Particulars: remark: other sources report otherwise. Background: Immunoblotting shows a protein as a band on a membrane.

The chains behind the UniProt entries cited, without tags or fusion partners.
UniProt Q8WQC9: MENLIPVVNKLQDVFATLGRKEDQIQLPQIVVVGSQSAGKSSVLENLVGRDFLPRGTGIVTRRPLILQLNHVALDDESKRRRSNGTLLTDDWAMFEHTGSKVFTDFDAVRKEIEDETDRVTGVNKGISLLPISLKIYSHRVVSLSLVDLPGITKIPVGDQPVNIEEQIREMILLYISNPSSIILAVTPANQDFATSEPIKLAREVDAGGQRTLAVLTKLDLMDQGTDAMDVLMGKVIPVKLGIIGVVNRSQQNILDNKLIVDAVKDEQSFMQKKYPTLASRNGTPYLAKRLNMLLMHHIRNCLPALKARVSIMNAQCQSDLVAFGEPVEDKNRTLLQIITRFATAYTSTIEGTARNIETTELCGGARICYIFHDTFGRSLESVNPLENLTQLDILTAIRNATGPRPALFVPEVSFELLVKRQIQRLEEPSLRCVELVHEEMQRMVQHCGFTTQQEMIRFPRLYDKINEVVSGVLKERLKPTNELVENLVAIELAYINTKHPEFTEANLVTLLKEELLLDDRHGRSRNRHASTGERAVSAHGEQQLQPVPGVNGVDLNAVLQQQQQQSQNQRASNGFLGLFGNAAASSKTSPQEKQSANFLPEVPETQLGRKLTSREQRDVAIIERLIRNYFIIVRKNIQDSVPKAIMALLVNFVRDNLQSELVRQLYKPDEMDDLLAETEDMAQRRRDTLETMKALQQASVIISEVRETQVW

Assay [2] concerns the target T1, GST-MIRO-1 (C. elegans) (UniProt Q94263).
T1 sequence: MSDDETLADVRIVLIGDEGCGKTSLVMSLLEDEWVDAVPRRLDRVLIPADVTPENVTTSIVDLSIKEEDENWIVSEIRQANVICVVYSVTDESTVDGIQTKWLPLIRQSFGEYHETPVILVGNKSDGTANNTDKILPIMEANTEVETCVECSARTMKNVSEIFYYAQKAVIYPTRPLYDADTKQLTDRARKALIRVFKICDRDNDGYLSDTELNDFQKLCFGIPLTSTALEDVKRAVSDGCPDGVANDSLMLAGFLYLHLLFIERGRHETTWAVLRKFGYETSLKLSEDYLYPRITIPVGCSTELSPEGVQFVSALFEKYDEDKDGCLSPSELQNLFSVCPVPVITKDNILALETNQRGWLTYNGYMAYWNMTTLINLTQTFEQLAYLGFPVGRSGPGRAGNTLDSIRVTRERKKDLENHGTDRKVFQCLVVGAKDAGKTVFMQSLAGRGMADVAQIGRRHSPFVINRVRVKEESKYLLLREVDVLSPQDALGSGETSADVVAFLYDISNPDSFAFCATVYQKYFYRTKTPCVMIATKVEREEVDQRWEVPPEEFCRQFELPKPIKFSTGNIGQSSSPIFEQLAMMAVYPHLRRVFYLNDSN
The experiment in a line: pull-down; four proteins: E. coli lysate with GST-MIRO-1 mixed with lysates with co-expressed Trx-MTX-1/Trx-MTX-2 and His-KLC-1-TPR; Glutathione Sepharose, PBS, 4 °C overnight; SDS-PAGE with Coomassie-blue staining.

For assay [3], the target named is T1, GST-MIRO-1 (C. elegans). In words: pull-down; E. coli cell lysates with the GST-tagged bait (or GST) mixed with cell lysates with His- or Trx-tagged proteins; Glutathione Sepharose 4 Fast Flow, PBS, 4 °C overnight; eluted with 20 mM glutathione; SDS-PAGE with Coomassie-blue staining.
Assay [4] addresses FLAG-DRP-1 (C. elegans) (UniProt Q8WQC9). The experiment in a line: co-IP; Flag-tagged bait and HA-tagged prey cotransfected into HEK293T cells, harvested after 48 h; NP40 Cell Lysis Buffer; ANTI-FLAG M2 Affinity Gel, 4 h at 4 °C; Western blotting.
In assay [5] the target is T2, FLAG-MIRO-1 (C. elegans) (UniProt Q94263).
T2 sequence: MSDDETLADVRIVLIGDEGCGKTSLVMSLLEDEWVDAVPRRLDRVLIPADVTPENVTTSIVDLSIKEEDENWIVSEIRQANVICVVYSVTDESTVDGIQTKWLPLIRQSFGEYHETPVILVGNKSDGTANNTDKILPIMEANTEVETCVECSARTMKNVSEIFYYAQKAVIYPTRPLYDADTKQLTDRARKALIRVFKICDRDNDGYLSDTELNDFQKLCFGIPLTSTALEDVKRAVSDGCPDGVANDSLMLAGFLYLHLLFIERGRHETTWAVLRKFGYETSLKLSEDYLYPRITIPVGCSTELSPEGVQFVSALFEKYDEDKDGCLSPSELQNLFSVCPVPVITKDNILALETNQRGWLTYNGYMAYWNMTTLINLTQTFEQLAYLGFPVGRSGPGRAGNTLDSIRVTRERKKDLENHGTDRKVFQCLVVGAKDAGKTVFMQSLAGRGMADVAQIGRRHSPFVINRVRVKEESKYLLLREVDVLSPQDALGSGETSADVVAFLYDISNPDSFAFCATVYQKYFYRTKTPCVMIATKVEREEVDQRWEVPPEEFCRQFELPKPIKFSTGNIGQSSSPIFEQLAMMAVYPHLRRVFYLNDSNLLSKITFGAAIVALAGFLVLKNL
The description is as above.

Assay [6] concerns the target T3, FLAG-MTX-1 (C. elegans) (UniProt O45503).
T3 sequence: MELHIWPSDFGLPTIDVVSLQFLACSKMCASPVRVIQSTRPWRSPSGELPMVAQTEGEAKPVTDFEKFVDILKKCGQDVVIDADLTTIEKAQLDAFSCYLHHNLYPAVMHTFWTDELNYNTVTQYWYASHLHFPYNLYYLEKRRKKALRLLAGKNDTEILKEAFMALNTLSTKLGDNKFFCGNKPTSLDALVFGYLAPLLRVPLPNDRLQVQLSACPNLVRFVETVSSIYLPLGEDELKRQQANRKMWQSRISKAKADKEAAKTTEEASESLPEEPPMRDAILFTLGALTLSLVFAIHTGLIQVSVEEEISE
The description is as above.

Assay [7] concerns the target T4, FLAG-MTX-2 (C. elegans) (UniProt P34599).
T4 sequence: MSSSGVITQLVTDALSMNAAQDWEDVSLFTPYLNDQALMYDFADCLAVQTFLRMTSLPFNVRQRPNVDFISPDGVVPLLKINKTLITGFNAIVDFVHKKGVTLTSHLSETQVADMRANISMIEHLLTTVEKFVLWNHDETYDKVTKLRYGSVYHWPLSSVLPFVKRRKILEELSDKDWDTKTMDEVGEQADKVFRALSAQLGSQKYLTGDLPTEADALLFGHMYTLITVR
The description is as above.

These are yes or no findings as the source states them, for the method shown. In cells and extracts the contact can be indirect. Some results given as binding are weak or reduced against the parent protein; the word gives no strength. For some of these results: Where a sequence is shown, tags or fusion partners need not be part of it.

Six molecules from paper PMC7782850 can be followed below.

B1: Mtx1, Q13505 1-466 (protein)
chain: MLLGGPPRSPRSGTSPKGPWSSTGHVQFGKSPQTWPRRTRPRSPEPAAPSGVRGSTWTRRRDSPRRAGPTALSRYVGHLWMGRRPPSPEARGPVPRSSAASRARRSLASPGISPGPLTATIGGAVAGGGPRQGRAEAHKEVFPGQRVGKMAAPMELFCWSGGWGLPSVDLDSLAVLTYARFTGAPLKVHKISNPWQSPSGTLPALRTSHGEVISVPHKIITHLRKEKYNADYDLSARQGADTLAFMSLLEEKLLPVLVHTFWIDTKNYVEVTRKWYAEAMPFPLNFFLPGRMQRQYMERLQLLTGEHRPEDEEELEKELYREARECLTLLSQRLGSQKFFFGDAPASLDAFVFSYLALLLQAKLPSGKLQVHLRGLHNLCAYCTHILSLYFPWDGAEVPPQRQTPAGPETEEEPYRRRNQILSVLAGLAAMVGYALLSGIVSIQRATPARAPGTRTLGMAEEDEEE
Consider B1, for which the binding result in assay [1] is “binds”.

B2: MTX-1/2 complex (formed by co-expression of Trx-MTX-1 and Trx-MTX-2) (complex, UniProt O45503 1-281; P34599 1-230)
chain 1: MELHIWPSDFGLPTIDVVSLQFLACSKMCASPVRVIQSTRPWRSPSGELPMVAQTEGEAKPVTDFEKFVDILKKCGQDVVIDADLTTIEKAQLDAFSCYLHHNLYPAVMHTFWTDELNYNTVTQYWYASHLHFPYNLYYLEKRRKKALRLLAGKNDTEILKEAFMALNTLSTKLGDNKFFCGNKPTSLDALVFGYLAPLLRVPLPNDRLQVQLSACPNLVRFVETVSSIYLPLGEDELKRQQANRKMWQSRISKAKADKEAAKTTEEASESLPEEPPMRDA
chain 2: T4 sequence
As for B2, the binding entry in assay [2] and in assay [3] was “binds” each time.

B3: Trx-MTX-2 (protein, UniProt P34599 1-230)
chain: T4 sequence
Take B3: the binding result in assay [3] is given as “binds”.

B4: HA-MTX-2 (protein, UniProt P34599 1-230)
chain: T4 sequence
In the case of B4, the binding result in assay [4] is on record as “no binding”; in assay [5], “binds”; in assay [6], “binds”.

B5: HA-MIRO-1 (protein, UniProt Q94263 1-625)
chain: T2 sequence
Turning to B5, the results for the binding result in assay [4] and in assay [7] were “no binding” and “binds”, respectively.

B6: HA-MTX-1 (protein, UniProt O45503 1-312)
chain: T3 sequence
For the molecule B6, the binding entry in assay [7] is recorded as “binds”.
